# In PubChem BioAssay (NCATS):
# Where “and” joins values, the source holds several entries; their conditions need not be identical. Identical values can stand only once. This list was built around the results that the source calls inconclusive (neither active nor inactive); the mix of calls is not that of the screen. For some of these results: A potency beside an inconclusive call is a rough fit, not a confirmed value. Calls of active or inactive are those of the source. The call rests on the fitted dose curve; in most records, active means well fitted curve in the direction sought with a large enough effect; inconclusive means small, poorly fitted or top-dose-only effect, or another doubt; inactive means no such curve, though single readings can be large; an effect the other way counts as inactive or inconclusive.
# Key:
# [1] = P-glycoprotein substrates identified in KB-8-5-11 adenocarcinoma cell line, qHTS therapeutic library screen (AID 1346987); conditions: activity change, negative = cytotoxicity: at 44.5 µM (top of the series); further: potency means the concentration at half of the fitted maximal effect; nearly all actives have a fitted effect of over 65% in size
# Summary of the method: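 Compounds are pinned in dose-response onto KB-8-5-11 cells (500 cells/well, colchicine-free medium) and left 72 h at 37 degree C. CellTiter-Glo luminescence then yields AC50 values.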
# [2] = qHTS of pediatric cancer cell lines to identify multiple opportunities for drug repurposing: Primary screen for SJ-GBM2 cells (AID 1347091); further: potency means the concentration at half of the fitted maximal effect
# Summary of the method: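 Viability measured as metabolically active cells via CellTiter-Glo luminescence following 48 hours of compound exposure, 11-point dilutions in confirmatory testing. 500-1,000 cells/well plated 5 hours before dosing; controls were DMSO and 2.3 µM bortezomib.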
# [3] = qHTS of pediatric cancer cell lines to identify multiple opportunities for drug repurposing: Primary screen for SK-N-MC cells (AID 1347093); conditions: SK-N-MC viability, CellTiter-Glo luminescence, 48 h; activity change, negative = cytotoxic: at 46 µM (top of the series); further: potency means the concentration at half of the fitted maximal effect
# Summary of the method: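 Metabolically active cells were quantified by ATP-dependent luminescence (CellTiter-Glo, 15 min at room temperature) following 48 h treatment. Cells had been plated at 500-1,000 per well and settled for 5 h beforehand.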
# [4] = qHTS of pediatric cancer cell lines to identify multiple opportunities for drug repurposing: Primary screen for NB-EBc1 cells (AID 1347095); further: potency means the concentration at half of the fitted maximal effect
# Summary of the method: (§1)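 Cells seeded at 500-1,000 cells/well in growth media, rested 5 hours at 37 degrees C, 5% CO2, then dosed; MIPE compounds at 11-point (from 0.78 nM) and NPC at 8-point (from 0.59 nM) final concentrations. Viability by CellTiter-Glo luminescence after 48 hours.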
# [5] = qHTS of pediatric cancer cell lines to identify multiple opportunities for drug repurposing: Primary screen for SK-N-SH cells (AID 1347098); further: potency means the concentration at half of the fitted maximal effect; nearly all actives have a fitted effect of over 65% in size
# Summary of the method: (§2)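 Cells (500-1,000/well) rested 5 h, then received compounds for 48 h; metabolically active cells were measured by CellTiter-Glo luminescence. Final concentrations spanned up to 46 µM (MIPE, 11-point) or 0.59 nM-46 µM (NPC, 8-point) in primary screens, 11-point in follow-ups.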
# [6] = qHTS of pediatric cancer cell lines to identify multiple opportunities for drug repurposing: Primary screen for Rh18 cells (AID 1347102); further: nearly all actives have a fitted effect of over 65% in size
# Summary of the method: (§3)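 Viability after 48 h compound treatment at 37C, 500-1,000 cells/well, read as ATP luminescence with CellTiter-Glo. Primary screens used 11-point (MIPE, 0.78 nM-46 µM) or 8-point (NPC, 0.59 nM-46 µM) final concentrations; follow-up screens used 11-point dilutions.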
# [7] = qHTS of pediatric cancer cell lines to identify multiple opportunities for drug repurposing: Primary screen for OHS-50 cells (AID 1347103); conditions: OHS-50 osteosarcoma viability, CellTiter-Glo luminescence, 48 h; activity change, negative = cytotoxic: at 57.3 µM (top of the series); further: potency means the concentration at half of the fitted maximal effect; nearly all actives have a fitted effect of over 40% in size
# Summary of the method: as §2
# [8] = qHTS of pediatric cancer cell lines to identify multiple opportunities for drug repurposing: Primary screen for control Hh wild type fibroblast cells (AID 1347106);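 further: a drop in luminescence marks cytotoxicity and a rise apparent proliferation; nearly all actives have a fitted effect of over 55% in size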
# Summary of the method: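 Cells (500-1,000/well) in growth media were settled 5 h at 37 degrees C, then given compounds for 48 h. Viability was read as CellTiter-Glo luminescence. Primary runs used MIPE at 11 points (0.78 nM-46 µM) and NPC at 8 points (0.59 nM-46 µM); follow-ups used 11 points.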
# [9] = qHTS of pediatric cancer cell lines to identify multiple opportunities for drug repurposing: Primary screen for Rh30 cells (AID 1347107); further: nearly all actives have a fitted effect of over 75% in size
# Summary of the method: as §3
# [10] = qHTS of pediatric cancer cell lines to identify multiple opportunities for drug repurposing: Primary screen for Rh41 cells (AID 1347108); further: potency means the concentration at half of the fitted maximal effect; nearly all actives have a fitted effect of over 70% in size
# Summary of the method: as §1
# [11] = Primary qHTS for inhibitors of nuclear receptor binding SET domain protein 2 (NSD2) in an isogenic RCH-ACV NSD2 p.E1099K mutant (9B) (AID 1645876); conditions: activity change, negative = viability loss: at 44.9 µM (top of the series) unless noted; further: nearly all actives have a fitted effect of over 70% in size; further: potency means the concentration at half of the fitted maximal effect
# [12] = Primary qHTS for inhibitors of nuclear receptor binding SET domain protein 2 (NSD2) in an RCH-ACV wild type WT cells (2C) (AID 1645877); conditions: activity change, negative = cell killing: at 44.9 µM (top of the series) unless noted; further: potency means the concentration at half of the fitted maximal effect; nearly all actives have a fitted effect of over 70% in size
# [13] = molecular target: Phospholipid hydroperoxide glutathione peroxidase GPX4 (Homo sapiens) (UniProt P36969); assay: Primary qHTS Assay for Inhibitors of Recombinant Selenoprotein Glutathione Peroxidase 4 (GPX4) (AID 1845192); conditions: activity change, negative = inhibition: at 50 µM (top of the series) unless noted; further: potency means the concentration at half of the fitted maximal effect; nearly all actives have a fitted effect of over 65% in size
# Chain of UniProt P36969 (P36969 whole entry, looked up): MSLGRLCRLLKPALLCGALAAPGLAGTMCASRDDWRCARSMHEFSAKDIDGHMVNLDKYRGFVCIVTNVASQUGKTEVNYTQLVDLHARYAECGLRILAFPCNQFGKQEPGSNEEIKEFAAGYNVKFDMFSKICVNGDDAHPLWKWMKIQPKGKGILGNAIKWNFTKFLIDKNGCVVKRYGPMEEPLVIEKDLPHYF
# Summary of the method: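 Steps: GPX4 plus compound, 30 min RT; add GR/GSH/NADPH master mix; start with cumene hydroperoxide; read 340/450 nm fluorescence at 0 and 15 min. Finals were 200 nM GPX4, 1 mM GSH, 0.5 mM CHP, 0.5 mM NADPH, 100 nM GR.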
# [14] = Quantitative High-Throughput drug screen in 47 multiple myeloma cell lines against the NCATS MIPE library collection: Delta47_JCRB cell viability assay (AID 1918925; further: potency means the concentration at half of the fitted maximal effect; nearly all actives have a fitted effect of over 45% in size)
# Summary of the method: (§4)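 CellTiter-Glo ATP luminescence gave viability after 48 h compound treatment at 37C of 500 multiple myeloma cells per well. Normalisation used DMSO-only wells as 100% and media-only wells as 0% viability; primary qHTS of approved and investigational drugs.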
# [15] = Quantitative High-Throughput drug screen in 47 multiple myeloma cell lines against the NCATS MIPE library collection: AMO1_DSMZ cell viability assay (AID 1918927; further: potency means the concentration at half of the fitted maximal effect; nearly all actives have a fitted effect of over 30% in size); conditions: AMO1 myeloma cells viability, CellTiter-Glo ATP luminescence, 48 h; viability, % of DMSO: at 45.8 µM (top of the series)
# Summary of the method: as §4
# [16] = Quantitative High-Throughput drug screen in 47 multiple myeloma cell lines against the NCATS MIPE library collection: ARP1_JJKsccF8 cell viability assay (AID 1918928; further: nearly all actives have a fitted effect of over 40% in size)
# Summary of the method: (§5)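 500 cells/well; MIPE 4.0 library pinned in; 48 h, 37 °C, 5% CO2; CellTiter-Glo ATP luminescence. Controls: DMSO = 100% viability, medium only = 0%.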
# [17] = Quantitative High-Throughput drug screen in 47 multiple myeloma cell lines against the NCATS MIPE library collection: KMM1_JCRB cell viability assay (AID 1918960); further: nearly all actives have a fitted effect of over 30% in size
# Summary of the method: as §5
# [18] = Quantitative High-Throughput drug screen in 47 multiple myeloma cell lines against the NCATS MIPE library collection: Karpas417_ECACC cell viability assay (AID 1918961); conditions: Karpas417 myeloma viability, CellTiter-Glo ATP luminescence, 48 h; viability (% of DMSO): at 45.8 µM (top of the series); further: potency means the concentration at half of the fitted maximal effect
# Summary of the method: (§6)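 Viability readout: CellTiter-Glo luminescence following 5 min room-temperature incubation with reagent. Prior exposure: 48 h, 37C, humidified 5% CO2, 500 cells per well.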
# [19] = Quantitative High-Throughput drug screen in 47 multiple myeloma cell lines against the NCATS MIPE library collection: KHM11_PLB cell viability assay (AID 1918962); further: potency means the concentration at half of the fitted maximal effect; nearly all actives have a fitted effect of over 35% in size
# Summary of the method: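 We plated 500 myeloma cells per well, pinned in MIPE 4.0 compounds, and incubated for 48 hours at 37C. ATP was then quantified with CellTiter-Glo, with DMSO and media-only wells defining 100% and 0%.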
# [20] = Quantitative High-Throughput drug screen in 47 multiple myeloma cell lines against the NCATS MIPE library collection: JIM1_ECACC cell viability assay (AID 1918964; further: potency means the concentration at half of the fitted maximal effect); conditions: JIM1 myeloma viability, CellTiter-Glo ATP luminescence, 48 h; viability (% of DMSO): at 45.8 µM (top of the series)
# Summary of the method: as §4
# [21] = Quantitative High-Throughput drug screen in 47 multiple myeloma cell lines against the NCATS MIPE library collection: INA6_PLB cell viability assay (AID 1918965; further: nearly all actives have a fitted effect of over 55% in size)
# Summary of the method: as §6
# [22] = Quantitative High-Throughput drug screen in 47 multiple myeloma cell lines against the NCATS MIPE library collection: JJN3_DSMZ cell viability assay (AID 1918966; further: potency means the concentration at half of the fitted maximal effect; nearly all actives have a fitted effect of over 50% in size); conditions: JJN3 myeloma cells viability, CellTiter-Glo ATP, 48 h; viability, % of DMSO: at 45.8 µM (top of the series)
# Summary of the method: as §4
# Tags describe the fitted curve by direction and shape.
smiles,measurement,setting,value
CCCCCCCCCCCCc1ccc(S(=O)(=O)Nc2nncs2)cc1,Potency,[1],"inconclusive: 33.2 µM [inhibitor, single point]"
same,Potency,[2],"inconclusive: 26.4 µM [cytotoxic, single point]"
same,Potency,[3],"inconclusive: 23.5 µM [cytotoxic, single point]"
same,Potency,[4],"inconclusive: 20.9 µM [cytotoxic, single point]"
same,Potency,[5],"inconclusive: 24.1 µM [cytotoxic, partial curve]"
same,Potency,[6],inactive
same,Potency,[7],"inconclusive: 27.3 µM [cytotoxic, partial curve, poor fit]"
same,Potency,[8],inactive
same,Potency,[9],inactive
same,Potency,[10],"inconclusive: 3.32 µM [cytotoxic, partial curve]"
same,Potency,[11],"inconclusive: 20.6 µM [inhibitor, single point] and inactive"
same,Potency,[12],"inconclusive: 18.4 µM [inhibitor, single point] and inconclusive: 11.8 µM [inhibitor, single point]"
same,Potency,[13],"inconclusive: 4.53 µM [inhibitor, single point]"
same,Potency,[14],active: 935 nM
same,Potency,[15],"inconclusive: 1.87 µM [cytotoxic, full curve, poor fit]"
same,Potency,[16],inactive
same,Potency,[17],inactive
same,Potency,[18],"inconclusive: 2.3 nM [rising, full curve, poor fit]"
same,Potency,[19],"inconclusive: 2.96 µM [cytotoxic, full curve, poor fit]"
same,Potency,[20],"inconclusive: 7.43 µM [cytotoxic, full curve, poor fit]"
same,Potency,[21],inactive
same,Potency,[22],"inconclusive: 13.2 µM [cytotoxic, partial curve, poor fit]"
